The other results are listed elsewhere or left out.
The compounds below were run on S. aureus RN4220 (assay: growth inhibition call (relative growth <= 0.2)). Conditions: 50 µM.
With `CC(C(=O)O)C(=O)O` the growth inhibition call was “inactive”. In the case of `C[C@H]1CN([C@@H](C)CO)C(=O)Cc2cc(NC(=O)CCCCCC(=O)Nc3ccccc3N)ccc2O[C@H]1CN(C)C(=O)Nc1ccccc1`, the growth inhibition call is reported as “inactive”. With `C[C@@H]1CCCCO[C@@H](CN(C)C(=O)Nc2cccc3ccccc23)[C@@H](C)CN([C@@H](C)CO)C(=O)c2cc(N(C)C)ccc2O1` the growth inhibition call was “inactive”. `C[C@@H]1CN([C@@H](C)CO)C(=O)c2ccccc2-c2ccccc2CO[C@H]1CN(C)Cc1ccccc1C(F)(F)F` was tested, and the growth inhibition call was “active”. In the case of `COc1ccc(S(=O)(=O)N(C)C[C@@H]2Oc3ccc(N(C)C)cc3CC(=O)N([C@H](C)CO)C[C@H]2C)cc1`, the growth inhibition call is reported as “inactive”. With `C[C@H](CO)N1C[C@H](C)[C@@H](CN(C)CC2CCCCC2)Oc2c(NC(=O)c3nc4ccccc4s3)cccc2C1=O` the growth inhibition call was “inactive”. With `C[C@H](NC(=O)C[C@H]1C=C[C@@H](NC(=O)CN2CCOCC2)[C@@H](CO)O1)c1ccccc1` the growth inhibition call was “inactive”. In the case of `C[C@H](CO)N1C[C@H](C)[C@H](CN(C)Cc2ccc(Oc3ccccc3)cc2)Oc2ccc(NC(=O)CCCCCC(=O)Nc3ccccc3N)cc2CC1=O`, the growth inhibition call is reported as “inactive”. `C[C@H]1CN([C@@H](C)CO)S(=O)(=O)c2ccc(C3=CCCCC3)cc2O[C@H]1CN(C)C(=O)C1CCOCC1` was tested, and the growth inhibition call was “inactive”. With `CCNC(=O)C[C@@H]1CC[C@@H]2[C@H](COC[C@H](O)CN2S(=O)(=O)c2ccc(Oc3ccccc3)cc2)O1` the growth inhibition call was “inactive”. For `Cc1noc(C)c1NC(=O)N(C)C[C@H]1Oc2ccc(NC(=O)Nc3ccc(C(F)(F)F)cc3)cc2C(=O)N([C@@H](C)CO)C[C@H]1C`, the growth inhibition call was “inactive”. In the case of `C[C@H](CO)N1C[C@H](C)[C@H](CN(C)C(=O)Nc2ccc(F)cc2)Oc2ccc(NC(=O)Nc3ccc(C(F)(F)F)cc3)cc2CC1=O`, the growth inhibition call is reported as “inactive”. `CC(C)N1C[C@@H](C)[C@H](CN(C)S(=O)(=O)c2ccc(F)cc2)OCCCC[C@H](C)Oc2ccc(NC(=O)Nc3ccccc3)cc2C1=O` was tested, and the growth inhibition call was “inactive”. For `C[C@@H]1CCCCO[C@H](CN(C)S(=O)(=O)c2ccccc2)[C@H](C)CN([C@@H](C)CO)C(=O)c2cc(NS(C)(=O)=O)ccc2O1`, the growth inhibition call was “inactive”. For `C[C@H](CO)N1C[C@H](C)[C@@H](CN(C)Cc2ccc3c(c2)OCO3)Oc2ccc(NC(=O)C3CC3)cc2CC1=O`, the growth inhibition call was “inactive”. With `C[C@H]1CN([C@@H](C)CO)C(=O)c2cc(NC(=O)NC3CCCCC3)ccc2O[C@@H]1CN(C)Cc1ccc(Cl)c(Cl)c1` the growth inhibition call was “inactive”. With `Cc1ccc(S(=O)(=O)Nc2ccc3c(c2)CC(=O)N([C@@H](C)CO)C[C@H](C)[C@@H](CN(C)S(=O)(=O)c2c(C)noc2C)O3)cc1` the growth inhibition call was “inactive”. `C[C@H]1CCCCO[C@@H](CN(C)Cc2ccc(C(F)(F)F)cc2)[C@@H](C)CN([C@@H](C)CO)C(=O)c2cc(NC(=O)Nc3ccc(F)cc3)ccc2O1` was tested, and the growth inhibition call was “inactive”. With `C[C@@H]1CCCCO[C@@H](CN(C)CC2CCCCC2)[C@@H](C)CN([C@H](C)CO)C(=O)c2cc(NC(=O)c3ccccc3)ccc2O1` the growth inhibition call was “inactive”. With `COc1ccc(NC(=O)Nc2ccc3c(c2)C(=O)N([C@H](C)CO)C[C@@H](C)[C@@H](CN(C)S(=O)(=O)c2ccc(C)cc2)OCCCC[C@H](C)O3)cc1` the growth inhibition call was “inactive”. For `C[C@@H]1CN([C@@H](C)CO)C(=O)Cc2cc(NC(=O)CCN3CCOCC3)ccc2O[C@H]1CN(C)C(=O)Nc1ccc2c(c1)OCO2`, the growth inhibition call was “inactive”. `COCC(=O)Nc1ccc2c(c1)[C@H]1C[C@H](CC(=O)N3CCOCC3)O[C@H](CO)[C@H]1O2` was tested, and the growth inhibition call was “inactive”. In the case of `C[C@H](CO)N1C[C@H](C)[C@@H](CN(C)C(=O)Nc2ccc3c(c2)OCO3)Oc2ccc(NC(=O)C3CC3)cc2CC1=O`, the growth inhibition call is reported as “inactive”. For `C[C@@H]1CN([C@@H](C)CO)C(=O)c2cc(NC(=O)Nc3ccc(F)cc3)ccc2O[C@@H]1CN(C)C(=O)Nc1cccc2ccccc12`, the growth inhibition call was “inactive”. `C[C@@H]1CN([C@H](C)CO)C(=O)c2cc(NC(=O)c3ccncc3)ccc2O[C@@H](C)CCCCO[C@@H]1CN(C)Cc1ccccc1` was tested, and the growth inhibition call was “inactive”. With `C[C@@H]1CCCCO[C@@H](CN(C)C)[C@@H](C)CN([C@H](C)CO)C(=O)c2cc(NC(=O)Nc3ccc(C(F)(F)F)cc3)ccc2O1` the growth inhibition call was “inactive”. For `CCN1C(=O)CS/C1=N\N1CCOCC1`, the growth inhibition call was “inactive”. With `C[C@@H]1CCCCO[C@H](CN(C)C(=O)Nc2ccccc2)[C@@H](C)CN([C@H](C)CO)C(=O)c2cc(NC(=O)CCC(F)(F)F)ccc2O1` the growth inhibition call was “inactive”. `O=C1NC[C@@H]2CN(C(=O)c3cnccn3)C[C@@H]12` was tested, and the growth inhibition call was “inactive”. For `CN1C(=O)c2cc(NC(=O)C3CCOCC3)ccc2OC[C@H]2O[C@@H](CC(=O)NCc3ccc4c(c3)OCO4)CC[C@@H]21`, the growth inhibition call was “inactive”. With `O=C(C[C@H]1CC[C@H]2[C@@H](COC[C@@H](O)CN2S(=O)(=O)c2ccc(F)cc2)O1)N1CCc2ccccc2C1` the growth inhibition call was “inactive”. In the case of `COc1ccc(CN(C)C[C@@H]2OCCCC[C@H](C)Oc3ccc(NC(=O)Nc4c(C)noc4C)cc3C(=O)N([C@H](C)CO)C[C@@H]2C)cc1`, the growth inhibition call is reported as “inactive”. For `C[C@@H]1CCCCO[C@@H](CN(C)Cc2ccc(C(F)(F)F)cc2)[C@@H](C)CN([C@@H](C)CO)C(=O)c2cc(NC(=O)CCC(F)(F)F)ccc2O1`, the growth inhibition call was “inactive”. For `CO[C@@H]1CN(C)C(=O)c2cc(NC(=O)CC(F)(F)F)ccc2OC[C@@H](C)N(S(=O)(=O)c2cn(C)cn2)C[C@H]1C`, the growth inhibition call was “inactive”. In the case of `CC1=C(C(=O)O)N2C(=O)[C@@H](NC(=O)[C@@H](N)c3ccc(O)cc3)[C@H]2SC1`, the growth inhibition call is reported as “inactive”. With `CCOC(=O)c1ncn2c1CN(C)C(=O)c1cc(F)ccc1-2` the growth inhibition call was “inactive”. For `CN1C[C@H](O)COC[C@@H]2O[C@@H](CC(=O)N3CCN(c4ccccc4)CC3)CC[C@H]21`, the growth inhibition call was “inactive”. `Cc1noc(C)c1NC(=O)N(C)C[C@H]1Oc2ccc(NC(=O)Nc3ccc(C(F)(F)F)cc3)cc2C(=O)N([C@H](C)CO)C[C@H]1C` was tested, and the growth inhibition call was “inactive”. With `O=C(NCCCN1CCCC1=O)c1cccnc1` the growth inhibition call was “inactive”. In the case of `C[C@@H]1CN([C@@H](C)CO)C(=O)c2cc(NC(=O)Nc3ccccc3)ccc2O[C@@H]1CN(C)Cc1ccc(C(F)(F)F)cc1`, the growth inhibition call is reported as “inactive”.

— the antibiotic and cytotoxicity screens of Wong et al. (2023)
